Hit rate of the full screen: of about 45,000 compounds, about 65 (0.1%) were called active. Calls follow the shape of the dose curve; as a rule, active = well fitted activation curve with a large enough effect; inconclusive = small, poorly fitted or top-dose-only effect; inactive = no such curve, though single readings can be large or run the other way. The list shows a part of the results.
target: Galactocerebrosidase (Homo sapiens) (UniProt P54803); experiment: A Novel Cell-Based Assay to Identify Small Molecules for B -Galactocerebrosidase; conditions: 145M-Twi-hGALC-G270D cells (Twitcher mouse brain line with human GALC G270D), HMU-beta-Gal fluorescence, 48 h; series mostly up to 57.5 µM; activation: at the top concentration; also: 0% is about no effect; nearly all actives have a fitted effect of over 65% in size
Chain of UniProt P54803 (P54803 whole entry, looked up): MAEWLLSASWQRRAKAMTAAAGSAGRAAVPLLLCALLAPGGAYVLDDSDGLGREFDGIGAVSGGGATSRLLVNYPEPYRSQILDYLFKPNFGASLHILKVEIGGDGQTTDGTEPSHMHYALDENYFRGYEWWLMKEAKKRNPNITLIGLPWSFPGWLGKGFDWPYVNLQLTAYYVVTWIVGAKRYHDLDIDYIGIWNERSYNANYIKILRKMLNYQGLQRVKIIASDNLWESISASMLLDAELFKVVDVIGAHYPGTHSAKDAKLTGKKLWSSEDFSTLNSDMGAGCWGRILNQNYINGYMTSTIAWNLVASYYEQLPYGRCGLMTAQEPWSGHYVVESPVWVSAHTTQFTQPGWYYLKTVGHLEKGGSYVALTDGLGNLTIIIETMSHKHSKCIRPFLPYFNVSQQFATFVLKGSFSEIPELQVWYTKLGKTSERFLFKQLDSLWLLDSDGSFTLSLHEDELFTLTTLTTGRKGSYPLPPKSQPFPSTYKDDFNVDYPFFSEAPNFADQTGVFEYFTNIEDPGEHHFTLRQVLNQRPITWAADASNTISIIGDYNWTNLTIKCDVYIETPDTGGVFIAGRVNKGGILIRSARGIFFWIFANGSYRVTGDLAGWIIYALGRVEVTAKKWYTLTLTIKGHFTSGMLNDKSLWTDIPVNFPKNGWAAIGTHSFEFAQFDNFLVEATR
Outline: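 Brain-derived Twitcher mouse 145M-Twi cells stably expressing human GALC-G270D or wild-type GALC, treated live, then residual GALC activity read by fluorescence of HMU-b-Gal substrate (0.1 mM final) in citrate-phosphate buffer pH 5.2 with sodium taurocholate. Signal increase indicates enhancement.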

activation, inactive:
CCOc1ccc(C(=O)OCc2cc(=O)n3cc(C)sc3n2)cc1 5.28%
Cc1ccc2[nH]c3c(=O)n(CC(=O)NC(C)C)ncc3c2c1 -2.81%
COc1ccc(CNC(=O)CSc2ncc(S(=O)(=O)c3ccc(Br)cc3)c(=O)[nH]2)cc1 3.02%
COC(=O)Nc1nc2ccc(Sc3ccccc3)cc2[nH]1 1.06%
COC(=O)c1cccc(Nc2nn3c(=O)c4cc5c(cc4nc3s2)OCO5)c1 -1.34%
COc1ccc(S(=O)(=O)NCC(c2ccc(N(C)C)cc2)N2CCOCC2)cc1 (stereo not drawn) -7.78%
COc1ccc(-c2[nH]c3ccccc3c2SCCNC(=O)c2ccc(S(=O)(=O)N(C)C)cc2)cc1 -17.4%
NC(=O)c1ccccc1NC(=O)Cn1nc(Cc2cccnc2)c2ccccc2c1=O -17.7%
CCOc1ccc(CNC(=O)c2sc3ncnc(N(C)C4CCCCC4)c3c2C)cc1 6.13%
O=C(CSC1=Nc2ccccc2N=C(c2ccc(F)cc2)C1)NCc1ccccc1Cl -8.92%
CCCCOc1ccc(CNC(=O)Cc2ccc(NC(=O)N3CCSc4ncccc43)cc2)cc1 -34%
CCNc1oc(-c2ccc(COc3ccc(Cl)cc3)o2)nc1C#N -9.65%
Cc1nn(-c2ccc(N3CCOCC3)nn2)c(C)c1CCC(=O)NCc1ccccc1F -3.93%
COC(=O)c1cc2oc(C)cc2n1CC(=O)Nc1cc(Cl)ccc1OC -13%
COc1ccc(CNC(=O)c2cc3cccc4c3n2CC(C)S4)c(OC)c1 (stereo not drawn) -23.1%
Cc1cccc(NC(=O)CSc2nc(=O)n(Cc3ccccn3)c3c2CCC3)c1C -1.06%
COc1ccc(C(=O)Oc2cc(-c3ccc4c(c3)OCO4)cc(=O)c3c(C)oc(C)c23)cc1 -11.1%
O=C(CSc1ncc(CO)n1Cc1ccc(Cl)cc1)NCc1ccc(F)cc1 -14.2%
COc1ccc(S(=O)(=O)N2CCN(CC(=O)Nc3ccc(Cl)c(C(F)(F)F)c3)CC2)cc1 -6.13%
Cc1ccc(Cl)cc1NC(=O)CSc1nc2c(c(=O)[nH]1)CN(Cc1ccccc1)CC2 -7.8%
CCOc1ccc(NC(=O)N(C(C)C)C2CCN(C(C)=O)CC2)cc1 -9.41%
CCOC(=O)c1ccc(NC(=O)CCc2c(C)nc3c(-c4ccc(F)cc4)c(C)nn3c2C)cc1 -4.51%
COc1ccc(NC(=O)C2Cc3ccccc3N2C(=O)c2ccccc2)cc1OC (stereo not drawn) 13.3%
Cc1ccccc1C(=O)Nc1ccc(C(=O)OCc2cc(=O)n3nc(C(C)C)sc3n2)cc1 -12.1%
Cc1ccc(-c2onc(C)c2C)cc1S(=O)(=O)Nc1ccc(Cl)cn1 0.55%
CSc1cccc(-c2nnc(NC(=O)c3ccc4c(c3)OCCO4)o2)c1 1.81%
CC(C)CC(=O)NCc1nc2cccnc2n1Cc1ccccc1 -7.35%
CCOC(=O)c1cc(-c2ccccc2)n(CC(=O)Nc2ccc(OC)cc2OC)c1C -17.2%
CCOc1ccc(NC(=O)C2CCN(S(=O)(=O)c3cc(-c4noc(C)n4)ccc3C)CC2)cc1 -6.56%
Cc1ccccc1CNC(=O)c1ccc(Cn2c(SCc3cccc(F)c3)nc3cccnc32)cc1 -5.98%
COc1ccc(-c2ccc(NS(=O)(=O)c3cccc(Cl)c3)cc2)nn1 -10.4%
O=C(CCc1cn(Cc2ccccc2F)c2ccccc12)NCc1ccc(Cl)cc1 -7.42%
CCOC(=O)c1nc(Nc2ccc(C(=O)OCC(C)C)cc2)c2ccccc2n1 1.21%
COc1cccc(NC(=O)N2CCC(n3c(C)nc4cccnc43)CC2)c1 -7.18%
O=C(NCc1ccccc1Cl)C1CCC(CNS(=O)(=O)c2ccc(Cl)cc2)CC1 (stereo not drawn) -12.8%
COc1ccc(-c2cc(=S)ss2)cc1 -5.54%
COc1cccc(Cn2c(=O)n(-c3ccc(C)c(F)c3)c(=O)c3sc4ccccc4c32)c1 -14.3%
Cc1ccc2oc(C(=O)N(Cc3cccc(F)c3)C3CCS(=O)(=O)C3)c(C)c2c1 (stereo not drawn) -7.39%
COc1ccc(N2CCN(C(=O)c3cc(S(=O)(=O)N4CCCCCC4)cn3C)CC2)cc1 -11.6%
Cc1ccc(N(CC(C)C)S(=O)(=O)c2nnc(NC(=O)c3ccco3)s2)cc1 -2.85%
O=C(COC(=O)C(Cc1c[nH]c2ccccc12)NC(=O)c1ccc(Br)cc1)c1ccc(Cl)cc1 (stereo not drawn) -5.66%
Cc1cc(C(C)(C)C)c(O)c(C(C)(C)C)c1 -11.8%
Cc1ccc(-c2cc(C(F)(F)F)n3nc(-c4ccc(Cl)cc4)cc3n2)cc1 -15.2%
COc1ccc(CNC(=O)C2CCN(Cc3nc(-c4ccc(OC)c(OC)c4)oc3C)CC2)cc1 -13%
COc1cccc(OC)c1C(=O)Nc1nnc(C)s1 7.95%
CCOc1ccc(C(=O)c2cn(Cc3ccccc3OC)c3cc4c(cc3c2=O)OCCO4)cc1 -11%
CCC(=O)N1CCc2cc(S(=O)(=O)CCC(=O)Nc3ccc(Cl)c(C(F)(F)F)c3)ccc21 -5.7%
CCCCN(CC)CCNC(=O)c1cn(CCOC)c(=O)c2c1c1ccccc1n2C -6%
COc1ccccc1N1CCN(C(=O)c2sc3nc4n(c(=O)c3c2C)CCC4)CC1 -15.8%
CCOC(=O)c1ccc(NC(=O)CSc2ccc(-c3sc(C)nc3C)nn2)cc1 -17.8%
O=C(NC1CC(=O)N(c2cccc(F)c2)C1)c1ccc(S(=O)(=O)N2CCOCC2)cc1 (stereo not drawn) -7.86%
Cc1ccc(NC(=O)Cn2c(=O)oc3ccccc32)cc1Cl 0.533%
COc1ccc(C(=O)c2oc3ccccc3c2NC(=O)c2ccc(F)cc2)cc1 -26.7%
O=C(c1cn(CCOc2ccccc2F)c2ccccc12)C1CCCCC1 -21.6%
COc1ccc(Cn2ccc3nc(C)c(C(=O)N4CCN(c5ccccc5)CC4)cc3c2=O)cc1 -7.71%
CCOC(=O)c1ccc(NC(=O)c2cn(-c3ccccc3)nc2-c2ccc(Br)cc2)cc1 11%
CCc1nonc1NC(=O)c1oc2cc(C)c(Cl)cc2c1C -0.552%
Cc1ccc(Nc2sc(C(=O)c3ccccc3)c(N)c2C(=O)NC(C)C)cc1 10.5%
Cc1cccc(Cn2cc(C(=O)c3ccccc3)c(=O)c3cc4c(cc32)OCO4)c1 -0.448%
COc1ccc(NC(=O)CSc2oc(-c3cccs3)nc2S(=O)(=O)c2ccc(Br)cc2)c(OC)c1 -12.6%
CN/C(=C\[N+](=O)[O-])NCCSCc1ccc(CN(C)C)o1 -16.3%
CCOc1ccc(NS(=O)(=O)c2ccc(N)cc2)nn1 -5.42%
O=C(CCn1cnc2ccccc2c1=O)NCc1ccccc1 -1.45%
Cc1ccc(N2CCN(C(=O)CCc3c(C)nc4c(c3C)c(=O)n(C)c(=O)n4C)CC2)c(C)c1 -7.62%
COc1cccc(CNC(=O)c2cc(-c3cccc(OC)c3)n[nH]2)c1 -13.2%
O=S(=O)(c1ccc2[nH]c3c(c2c1)CCCCC3)N1CCN(c2ccccc2)CC1 -15.4%
CCCSCCCNC(=O)CN1C(=O)COc2ccc(S(=O)(=O)N3CCC(C)CC3)cc21 -10.3%
Cc1cccc(C)c1NC(=O)c1oc2c(c1C)-c1nn(Cc3ccccc3)cc1CC2 -15.8%
COc1cc(OC)c(N(C)C(=O)c2nn(C)c3c2CSc2ccccc2-3)cc1Cl -9.06%
CCN(CC)CCCNC(=O)Cn1nc(N2CCN(c3ccccc3OC)CC2)ccc1=O 4.5%
CN1C(=O)Cc2cc(S(=O)(=O)CCC(=O)Nc3ccccc3)ccc21 -7.28%
CC(=O)C1=C(c2ccc(Cl)c(Cl)c2)N(C(C)=O)n2c(C)nnc2S1 -11.2%
CCCCOc1ccc(S(=O)(=O)N2CCN(c3ccccc3OCC)CC2)cc1 -8.73%
COc1ccc(Cl)cc1NC(=O)CN(C)S(=O)(=O)c1ccc(Br)s1 -9.33%
Cc1nc2c(C(=O)N(C)Cc3ccccc3)c[nH]n2c(=O)c1Cc1ccc(Cl)cc1 2.31%
Cc1ccc(Cl)cc1N1CCN(C(=O)c2ccc3c(c2)N(Cc2ccccc2F)C(=O)c2ccccc2S3(=O)=O)CC1 -12.9%
CCOc1ccccc1NC(=O)c1sc(-n2nc(C)c(CCC(C)C)c2C)nc1C -15.4%
O=C(NCC(c1ccccc1)c1ccccc1)c1nn(-c2ccccc2Cl)nc1CO -4.54%
C#CCN[C@@H]1CCc2ccccc21 -10.8%
O=C(Nc1cccc(Cl)c1)Nc1ccccc1OCc1cc(=O)n2ccccc2n1 -6.27%
Cc1cc(C)c2oc(-c3cccc(NC(=O)c4ccco4)c3)nc2c1 11.4%
CCC1CCCCN1CCCNC(=O)CN1C(=O)CSc2ccc(S(=O)(=O)N3CCC(C)CC3)cc21 (stereo not drawn) -22.2%
Cc1cc2c(c3oc(=O)c4ccccc4c13)CN(Cc1ccc(F)cc1)CO2 -21.4%
COCCCNC(=O)CCC(=O)N1Cc2ccccc2Oc2ncccc21 8.02%
COc1cccc(C(=O)Nc2c(C(=O)NC(C)(C)C)oc3ccccc23)c1 -14.6%
Cc1ccc(CCNC(=O)Cn2c(-c3cccs3)cc3cc(F)ccc32)cc1 -9.87%
CCc1cccc2sc(N3CCN(C(=O)c4cc5ccccc5cc4OC)CC3)nc12 -42.6%
Cc1ccc(CNC(=O)CN(c2ccc(Cl)cc2Cl)S(=O)(=O)c2ccccc2)cc1 -9.62%
Cc1ccc(CNC(=O)Cn2ccn(-c3ccc(C)c(C)c3)c(=O)c2=O)cc1 -4.66%
CN(C)c1ccc(CNC(=O)CN(C)S(=O)(=O)c2ccc3c(c2)c(=O)n(C)c(=O)n3C)cc1 -15.3%
C1COC(NC(C2CC2)C2CC2)=N1 -19.6%
Cc1ccc(-n2nc3c(N4CCCC(C(=O)NCCc5ccccc5)C4)nnc(C)c3c2C)cc1 (stereo not drawn) -8.01%
O=C(Cn1ncc2c(=O)oc3ccccc3c21)NCc1ccccc1Cl -0.548%
COc1ccc(CC(=O)NCc2ccc3c(c2)CCN3C(=O)c2ccc(C)cc2)cc1OC -46.1%
CCc1cccc(NC(=O)Cn2c(=O)n(CCc3ccc(OC)c(OC)c3)c(=O)c3ccccc32)c1 4.16%
COc1cccc(CNC(=O)CSc2c3c(nc4ccc(Cl)cc24)CCCC3)c1OC -8.69%
O=C(Cn1ncc2c3ccccc3n(Cc3ccccc3F)c2c1=O)NCCc1ccc(Cl)cc1 0.999%
CCOC(=O)c1c(C)[nH]c(C)c1S(=O)(=O)N1CCCC(C(=O)Nc2ccc(OC)c(Cl)c2)C1 (stereo not drawn) -9.36%
